Reference: the RNAGym collection of RNA variant scans (doi:10.7554/elife.90254)
Read counts are not given, so values of variants with three or more changes are uncertain.

B1: OR4K15 (parent)
chain: GUUAACGGUCAUAGGCCAUGGAAACUAGGAGCACCAUUUCGCUGCCAGUGAAGAAAUGAACAAAGAAAAUCUGGGCCAGGCAGGCAUCAAAAGAAAUAGUCUUGCGCUCAACCAGAAAGUCUGUAAUCAUUUUAAGGGUA

Variants of: B1
Assay: self-cleavage, relative activity (ratio to wild type); higher = more cleavage; in vitro, sequencing; the parent is a self-cleaving ribozyme

Question: For U9C A33G G80A, which self-cleavage is on record?
Answer: Its self-cleavage is 0.32.

Question: With A33G A67G A68G U132C G137C as the variant, how does the self-cleavage read?
Answer: Its self-cleavage is 0.89.

Question: Which self-cleavage does the source give for A92G A117G A135G here?
Answer: Its self-cleavage is 1.18.

Question: Which self-cleavage does the source give for U39C A96G A135G here?
Answer: Its self-cleavage is 1.19.

Question: With A18U A30U A56G G106A U120G U127C as the variant, how does the self-cleavage read?
Answer: The self-cleavage was 0.

Question: With U39A A64U A96G U130G as the variant, how does the self-cleavage read?
Answer: The self-cleavage was 1.64.

Question: For A30G A86G U108A, which self-cleavage is on record?
Answer: The self-cleavage was 0.01.

Question: With A30G A52U A63G U87A A114C A118U as the variant, how does the self-cleavage read?
Answer: Its self-cleavage is 0.03.

Question: Which self-cleavage does the source give for A5U U102C A116U here?
Answer: The self-cleavage was 0.4.

Question: For U38C A68G A118C A135G G138U, which self-cleavage is on record?
Answer: Its self-cleavage is 1.1.

Question: With A5G A30G A64G A67G as the variant, how does the self-cleavage read?
Answer: The self-cleavage was 1.07.

Question: Which self-cleavage does the source give for U38A U39C A52G A134U here?
Answer: Its self-cleavage is 1.38.

Question: Which self-cleavage does the source give for A33G U43G A78U A114G here?
Answer: Its self-cleavage is 0.07.

Question: Which self-cleavage does the source give for A27G A55G A68G G119A here?
Answer: Its self-cleavage is 1.95.

Question: With A33U A66U A116C as the variant, how does the self-cleavage read?
Answer: The self-cleavage was 0.04.

Question: With A4G A67G U72C U130C as the variant, how does the self-cleavage read?
Answer: Its self-cleavage is 0.16.

Question: With A56G A66G A114U as the variant, how does the self-cleavage read?
Answer: The self-cleavage was 0.03.

Question: Which self-cleavage does the source give for A11U U57C U122C here?
Answer: Its self-cleavage is 0.78.

Question: Which self-cleavage does the source give for G21U U39A U72C here?
Answer: Its self-cleavage is 0.22.

Question: For U9C A27G A51U A54U A64G U130C A140G, which self-cleavage is on record?
Answer: The self-cleavage was 0.72.

Question: For A47G C71U A111G, which self-cleavage is on record?
Answer: The self-cleavage was 0.01.

Question: Which self-cleavage does the source give for U37C A68G U127C here?
Answer: The self-cleavage was 0.77.

Question: Which self-cleavage does the source give for U9A U70A U122C here?
Answer: Its self-cleavage is 0.49.

Question: With A60U C76A C81U A116G as the variant, how does the self-cleavage read?
Answer: The self-cleavage was 0.06.

Question: Which self-cleavage does the source give for U43A C46U A78C A95G U127A U131C here?
Answer: Its self-cleavage is 0.47.

Question: With G28A U43A U72A as the variant, how does the self-cleavage read?
Answer: The self-cleavage was 0.14.

Question: Which self-cleavage does the source give for U2C U38A A59G U97C A114G here?
Answer: The self-cleavage was 0.28.

Question: Which self-cleavage does the source give for C46U A89U A92G here?
Answer: The self-cleavage was 0.75.

Question: Which self-cleavage does the source give for A18U A52G U127C here?
Answer: Its self-cleavage is 0.72.

Question: Which self-cleavage does the source give for G8C A67G U72C A125G here?
Answer: Its self-cleavage is 0.31.

Question: Which self-cleavage does the source give for A22G U43C A135G here?
Answer: The self-cleavage was 1.27.

Question: Which self-cleavage does the source give for U37C A52G U130C here?
Answer: Its self-cleavage is 0.88.

Question: For A11G A60G A117U U139C, which self-cleavage is on record?
Answer: The self-cleavage was 0.3.

Question: Which self-cleavage does the source give for A23G A78U A94U here?
Answer: Its self-cleavage is 0.7.

Question: For A11U A30G U87A A117G, which self-cleavage is on record?
Answer: Its self-cleavage is 1.89.

Question: For U2A A95G A135U, which self-cleavage is on record?
Answer: Its self-cleavage is 0.9.

Question: For A59G U102C A114G, which self-cleavage is on record?
Answer: Its self-cleavage is 0.46.

Question: For U19C A63G A134G, which self-cleavage is on record?
Answer: Its self-cleavage is 1.13.

Question: For G21U A47G A62G A91G U131C, which self-cleavage is on record?
Answer: The self-cleavage was 0.21.

Question: Which self-cleavage does the source give for C71U U72C U87A U127A here?
Answer: Its self-cleavage is 0.41.

Question: With A94U C105U U131C as the variant, how does the self-cleavage read?
Answer: The self-cleavage was 0.12.

Question: For A47G U87A A126U, which self-cleavage is on record?
Answer: Its self-cleavage is 0.71.

Question: Which self-cleavage does the source give for U39C A64U A90U here?
Answer: The self-cleavage was 1.46.

Question: With A60U A114G U122A as the variant, how does the self-cleavage read?
Answer: The self-cleavage was 1.09.

Question: For A96U A111U U127C, which self-cleavage is on record?
Answer: The self-cleavage was 0.04.

Question: For U19C U49C A94U, which self-cleavage is on record?
Answer: The self-cleavage was 1.54.

Question: Which self-cleavage does the source give for A67G A114G A116G A118G here?
Answer: Its self-cleavage is 0.02.

Question: For A13G A24G C32A A118G, which self-cleavage is on record?
Answer: Its self-cleavage is 0.53.

Question: Which self-cleavage does the source give for A18G U103C U131C here?
Answer: Its self-cleavage is 0.67.

Question: Which self-cleavage does the source give for A4G A5G U37C U38A here?
Answer: Its self-cleavage is 1.03.

Question: Which self-cleavage does the source give for A5G A23U U43C A140G here?
Answer: The self-cleavage was 1.36.

Question: Which self-cleavage does the source give for U3C A59G A60G A62G A126G here?
Answer: The self-cleavage was 0.85.

Question: With U39C U49C A51U A111G as the variant, how does the self-cleavage read?
Answer: Its self-cleavage is 0.03.

Question: Which self-cleavage does the source give for A30G A67G A96G A111G A114G G123A here?
Answer: Its self-cleavage is 0.02.

Question: Which self-cleavage does the source give for G7A G99A A110U here?
Answer: The self-cleavage was 0.42.

Question: For A23G U43C U70C U108C U139A, which self-cleavage is on record?
Answer: The self-cleavage was 0.02.

Question: For A23G G31A U57C, which self-cleavage is on record?
Answer: The self-cleavage was 0.36.

Question: With A24G G41A U87C as the variant, how does the self-cleavage read?
Answer: Its self-cleavage is 1.15.

Question: Which self-cleavage does the source give for U49C A55U A89U A116G here?
Answer: Its self-cleavage is 0.49.

Question: With C42A A47G A89U as the variant, how does the self-cleavage read?
Answer: The self-cleavage was 0.91.

Question: For U38A A67G U100C, which self-cleavage is on record?
Answer: The self-cleavage was 2.29.

Question: For A52G A63G C76U, which self-cleavage is on record?
Answer: The self-cleavage was 0.1.

Question: For U2C U132C A135U, which self-cleavage is on record?
Answer: The self-cleavage was 1.05.

Question: With U9C U39A U87A as the variant, how does the self-cleavage read?
Answer: Its self-cleavage is 1.52.

Question: For U12C A23G A82U U122C, which self-cleavage is on record?
Answer: The self-cleavage was 0.04.

Question: Which self-cleavage does the source give for U9C A91G U97C U133C here?
Answer: The self-cleavage was 0.92.

Question: Which self-cleavage does the source give for U39A A59G A116G here?
Answer: The self-cleavage was 0.32.

Question: For A62G A98G A129G, which self-cleavage is on record?
Answer: Its self-cleavage is 0.25.

Question: Which self-cleavage does the source give for U26C A47U U132C A135U here?
Answer: Its self-cleavage is 0.84.

Question: Which self-cleavage does the source give for A22G A52G A62U here?
Answer: Its self-cleavage is 1.15.

Question: For A24G C88U A96G, which self-cleavage is on record?
Answer: Its self-cleavage is 1.06.

Question: With A56G A89U U97C as the variant, how does the self-cleavage read?
Answer: Its self-cleavage is 2.

Question: Which self-cleavage does the source give for C40U A82G A110G here?
Answer: Its self-cleavage is 0.04.

Question: Which self-cleavage does the source give for U26C A66G A82G here?
Answer: Its self-cleavage is 0.51.

Question: For U49C U87C U103A, which self-cleavage is on record?
Answer: The self-cleavage was 0.57.

Question: For U2C U39G U100C U102C, which self-cleavage is on record?
Answer: Its self-cleavage is 2.24.

Question: Which self-cleavage does the source give for U19C A54G A95G U108C here?
Answer: Its self-cleavage is 0.01.

Question: Which self-cleavage does the source give for U9C A47U U57A U72C A94G here?
Answer: Its self-cleavage is 0.02.

Question: Which self-cleavage does the source give for U43C A55G A116G A125G here?
Answer: Its self-cleavage is 0.15.

Question: With G14A A23C U87C A91G as the variant, how does the self-cleavage read?
Answer: Its self-cleavage is 0.92.

Question: Which self-cleavage does the source give for A52G G73A C76U U103C A116U here?
Answer: Its self-cleavage is 0.01.

Question: Which self-cleavage does the source give for C17A A24G U39A A54G A90G here?
Answer: Its self-cleavage is 0.71.

Question: Which self-cleavage does the source give for U9C A64G A67G U127A here?
Answer: The self-cleavage was 2.3.

Question: Which self-cleavage does the source give for A27G A82G A111G U124C here?
Answer: Its self-cleavage is 0.01.
